In test [1] the test system is RAW-Dual. Description: NF-kB SEAP reporter activity, fold change vs agonist alone; higher = enhanced NF-kB activity. Particulars: library stock concentration (final ~1000-fold dilution): 10 mM. An outline of the steps:
(§1)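 RAW-Dual macrophages were seeded in DMEM at 50,000 cells/well in 384-well plates, given 50 nL of library stock by pin tool, and given a PRR agonist 1 h later. Plates were held at 37 °C, 5% CO2 for 20 hours, after which supernatant was read for IRF by QuantiLuc luminescence and for NF-κB by QuantiBlue absorbance at 620 nm. Reporter activity is expressed as fold change over wells that received agonist alone. A well was called cytotoxic when IncuCyte confluency fell below 70% of agonist controls in both mask sets.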

Test [2] relates to RAW-Dual. Description: NF-kB SEAP reporter activity, fold change vs agonist alone; cytotoxicity flag (confluency mask): not cytotoxic; higher = enhanced NF-kB activity. An outline of the steps:
as §1

Test [3] deals with RAW-Dual. Description: NF-kB SEAP reporter activity, fold change vs agonist alone; cytotoxicity flag (confluency mask): cytotoxic (confluency <70% of control); higher = enhanced NF-kB activity. In short, it runs like this:
as §1

Setting [4] is: cytotoxicity flag (confluency mask): not cytotoxic, agonist: Imiquimod (TLR7) […].
The mark [5] stands for this setting: cytotoxicity flag (confluency mask): not cytotoxic, agonist: MPLA (TLR4) […].
[6] abbreviates: agonist: ODN 1826 (TLR9) 0.5 ug/mL.
The mark [7] stands for this setting: agonist: Pam2CSK4 (TLR2/6) 0.1 ug/mL.
Where [8] appears, read: agonist: Pam3CSK4 (TLR2/1) 0.1 ug/mL.

Structures are written as SMILES. The full ranking holds about 2,900 compounds; the median of “NF-kB SEAP reporter activity, fold change vs agonist alone” is about 0.99, and the highest 2% start at about 2.6. This is one part of the list.

With `CCCc1cc(C)[nH]c(=O)c1CNC(=O)c1cc(-c2ccc(N3CCN(C)CC3)nc2)nc2c1cnn2C(C)C`, the “NF-kB SEAP reporter activity” value in the test on RAW-Dual [1] (setting [4]) amounted to 0.343; in the test with RAW-Dual [1] (setting [5]), 0.478.
As to `CCCc1cc(C)[nH]c(=O)c1CNC(=O)c1cc(-c2ccc(N3CCN(C)CC3)nc2)nc2c1cnn2C(C)C` (library stock concentration (final ~1000-fold dilution): 10 mM), the “NF-kB SEAP reporter activity” value in the test on RAW-Dual [2] (agonist: LPS (TLR4) 0.1 ug/mL) stood at 0.827; in the test with RAW-Dual [2] (setting [6]) it was 0.752; in the test with RAW-Dual [2] (setting [7]), 0.837; in the test with RAW-Dual [2] (setting [8]) it was 0.714.
For the molecule `COc1ccc(C(=O)CC2(O)C(=O)Nc3c(Cl)ccc(Cl)c32)cc1` (stereo not given), the “NF-kB SEAP reporter activity” value stood at 0.903 in the test on RAW-Dual [1] (setting [4]) and 0.831 in the test on RAW-Dual [1] (setting [5]).
Consider `COc1ccc(C(=O)CC2(O)C(=O)Nc3c(Cl)ccc(Cl)c32)cc1` (stereo not given) (library stock concentration (final ~1000-fold dilution): 10 mM), for which the “NF-kB SEAP reporter activity” value with RAW-Dual [2] (agonist: LPS (TLR4) 0.1 ug/mL) was 0.776; in the test with RAW-Dual [2] (setting [6]), 0.749; in the test on RAW-Dual [2] (setting [7]) it was 0.48; in the test with RAW-Dual [2] (setting [8]), 0.581.
Consider `O=C(NC1CCN(CCCCC2(C(=O)NCC(F)(F)F)c3ccccc3-c3ccccc32)CC1)c1ccccc1-c1ccc(C(F)(F)F)cc1` (library stock concentration (final ~1000-fold dilution): 10 mM), for which the “NF-kB SEAP reporter activity” value with RAW-Dual [3] (agonist: LPS (TLR4) 0.1 ug/mL) came out at 0.351; with RAW-Dual [3] (setting [6]) it was 0.196; with RAW-Dual [3] (setting [7]), 0.249; in the test on RAW-Dual [3] (setting [8]), 0.157.
For the molecule `O=C(NC1CCN(CCCCC2(C(=O)NCC(F)(F)F)c3ccccc3-c3ccccc32)CC1)c1ccccc1-c1ccc(C(F)(F)F)cc1`, the “NF-kB SEAP reporter activity” value is 0.6 in the test with RAW-Dual [1] (cytotoxicity flag (confluency mask): cytotoxic (confluency <70% of control), agonist: Imiquimod (TLR7) […]) and 0.766 in the test with RAW-Dual [1] (cytotoxicity flag (confluency mask): cytotoxic (confluency <70% of control), agonist: MPLA (TLR4) […]).
On to `COS(=O)(=O)[O-].Cc1cc2c3c([n+](C)c4ccc(F)cc4c3c1)-c1cc(F)ccc1N2C`, for which the “NF-kB SEAP reporter activity” value with RAW-Dual [1] (setting [4]) amounted to 0.492; with RAW-Dual [1] (setting [5]), 0.998.
In the case of `COS(=O)(=O)[O-].Cc1cc2c3c([n+](C)c4ccc(F)cc4c3c1)-c1cc(F)ccc1N2C` (library stock concentration (final ~1000-fold dilution): 10 mM), the “NF-kB SEAP reporter activity” value with RAW-Dual [2] (agonist: LPS (TLR4) 0.1 ug/mL) turned out to be 0.773; in the test with RAW-Dual [2] (setting [6]), 0.96; in the test with RAW-Dual [2] (setting [7]), 0.664; with RAW-Dual [2] (setting [8]), 0.53.
As for `COc1cc(Nc2ncc(F)c(Nc3ccc4c(n3)NC(=O)C(C)(C)O4)n2)cc(OC)c1OC.O=S(=O)(O)c1ccccc1` (library stock concentration (final ~1000-fold dilution): 10 mM), the “NF-kB SEAP reporter activity” value in the test with RAW-Dual [2] (agonist: LPS (TLR4) 0.1 ug/mL) is 0.615; with RAW-Dual [2] (setting [6]), 0.94; in the test with RAW-Dual [2] (setting [7]), 0.285; with RAW-Dual [2] (setting [8]), 0.848.
With `COc1cc(Nc2ncc(F)c(Nc3ccc4c(n3)NC(=O)C(C)(C)O4)n2)cc(OC)c1OC.O=S(=O)(O)c1ccccc1`, the “NF-kB SEAP reporter activity” value amounted to 0.897 with RAW-Dual [1] (setting [4]) and 0.963 with RAW-Dual [1] (setting [5]).
On to `C/C=C(/C)C(=O)OC1C(OC(C)=O)c2c(ccc3ccc(=O)oc23)OC1(C)C` (stereo not given), for which the “NF-kB SEAP reporter activity” value was 0.896 in the test with RAW-Dual [1] (setting [4]) and 1.23 in the test on RAW-Dual [1] (setting [5]).
Turning to `C/C=C(/C)C(=O)OC1C(OC(C)=O)c2c(ccc3ccc(=O)oc23)OC1(C)C` (stereo not given) (library stock concentration (final ~1000-fold dilution): 10 mM), the “NF-kB SEAP reporter activity” value with RAW-Dual [2] (agonist: LPS (TLR4) 0.1 ug/mL) worked out at 0.93; in the test on RAW-Dual [2] (setting [6]) it was 0.822; with RAW-Dual [2] (setting [7]) it was 0.562; with RAW-Dual [2] (setting [8]) it was 0.729.
Regarding `CC(=O)Nc1cccc2c1c(Sc1ccc(Cl)cc1)c(C)n2CC(=O)O` (library stock concentration (final ~1000-fold dilution): 10 mM), the “NF-kB SEAP reporter activity” value in the test with RAW-Dual [2] (agonist: LPS (TLR4) 0.1 ug/mL) turned out to be 1.9; in the test on RAW-Dual [2] (setting [6]), 0.937; in the test on RAW-Dual [2] (setting [7]) it was 0.971; in the test with RAW-Dual [2] (setting [8]) it was 1.09.

Source of the values: the supplement of paper PMC10037445.
